# According to PubChem BioAssay AID686978 (National Center for Advancing Translational Sciences (NCATS), 2013):
# Several values for one entry are separate records, joined by “and”; a condition that tells them apart may be missing. Equal values may be shown once. Out of some 420,000 compounds screened, about 64,000 (15%) were called active. Inconclusive means that the source gave no clear call. Such entries were picked first, then a sample of the others. The call rests on the fitted dose curve; in most records, active means well fitted inhibition curve with a large enough effect; inconclusive means small, poorly fitted or top-dose-only effect; inactive means flat fitted curve, though single readings scatter. Potencies of inconclusive entries are left out as doubtful fits.
# Test: qHTS for Inhibitors of human tyrosyl-DNA phosphodiesterase 1 (TDP1): qHTS in cells in absence of CPT; further: nearly all actives have a fitted effect of over 55% in size
# Conditions: DT40 Tdp1-/- hTDP1 cells, no CPT, ATP luminescence, 48 h; series mostly up to 46.2 µM
# How it was run: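 Readout: luminescence from CellTiter-Glo after 30 min in the dark at RT. Cells: DT40 Tdp1-/- with stable hTDP1, 400/well. Exposure: compounds alone, ≥48 hr, 37 °C.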
# Potency means the concentration at half of the fitted maximal effect; tags describe the fitted curve by direction and shape.
row,SMILES,Potency
1,CCSc1nnc(NC(=O)CN2C(=O)N(C)C3(CCCCC3)C2=O)s1,inactive
2,CCN(C(=O)CSc1nc2ccc(Cl)cc2[nH]1)C1CCS(=O)(=O)C1 (stereo unspecified),inactive
3,O=C(CSc1nnc(-c2ccccc2)n1Cc1ccco1)Nc1ccc(S(=O)(=O)N2CCCC2)cc1,"inconclusive [inhibitor, single point]"
4,CC(=O)c1ccc(Nc2cc(C)nc3ccc(C)cc23)cc1,"inconclusive [inhibitor, single point]"
5,CN(C)c1ccc(CNC(=O)c2cc(S(=O)(=O)N3CCCC3)cn2C)cc1,"inconclusive [inhibitor, single point]"
6,O=c1c2cc3c(cc2[nH]c(=S)n1C1CCN(Cc2ccccc2)CC1)OCO3,"inconclusive [inhibitor, partial curve]"
7,CCOc1ccc(-c2csc(/C(C#N)=C/c3ccc(Br)cc3)n2)cc1,inactive
8,CC(C)(C)c1ccc(C(=O)O[C@H]2[C@H](Cc3ccccc3)NS(=O)(=O)[C@H]3C[C@@H]4C=C[C@]23O4)cc1,"inconclusive [inhibitor, single point]"
9,O=C(c1ccc2nc(-c3ccccc3)c(-c3ccccc3)nc2c1)N1CCCCC1,active: 16.4 µM
10,O=C(Nc1ccc(C(=O)N2CCOCC2)cc1)Nc1cccc(Cl)c1,"inconclusive [inhibitor, single point]"
11,CN(C)/C=C/C=C1C(=O)CCCC1=O,inactive
12,O=C(CN1C(=O)/C(=C\c2ccccc2Br)Oc2ccccc21)NCCCN1CCOCC1,"inconclusive [inhibitor, single point]"
13,CCOC(=O)C1=C(CCc2ccccc2)NC(=O)NC1c1ccc(Br)cc1 (stereo unspecified),"inconclusive [inhibitor, single point]"
14,CCCn1c(NCc2ccc(N(CC)CC)cc2)nc2ccccc21,active: 8.2 µM
15,Cc1noc(C)c1-c1nccc(NCCN2CCOCC2)n1,"inconclusive [inhibitor, single point]"
16,O=C(Nc1ccon1)c1csc2c1CCCC2,inactive
17,Cc1cc(C(=O)COC(=O)C2=COCCO2)c(C)n1-c1ccc2c(c1)OCO2,"inconclusive [inhibitor, single point]"
18,Cc1csc(CN(C)C(=O)CC2C(=O)NCCN2Cc2ccc(F)c(F)c2)n1 (stereo unspecified),"inconclusive [inhibitor, single point]"
19,CCC(=O)Nc1ccc2nc(SCCOc3ccc(C)cc3)sc2c1,"inconclusive [inhibitor, partial curve, poor fit]"
20,S=C(Nc1ccccc1)Nc1ccc(Cl)cn1,active: 5.8 µM
21,CCOC(=O)C1CCN(C(=O)CN2c3ccc(CC)cc3-c3ccccc3S2(=O)=O)CC1,"inconclusive [inhibitor, single point]"
22,c1ccc2c(c1)NC1(CCCC1)n1c-2nc2ccccc21,"inconclusive [inhibitor, single point]"
23,CCS(=O)(=O)c1ncc(N(Cc2ccc(F)cc2)Cc2ccco2)c(C(=O)Nc2cc(C)ccc2C)n1,"inconclusive [inhibitor, single point]"
24,Cc1nc([N+](=O)[O-])cn1-c1ccc([N+](=O)[O-])cc1,inactive

row,SMILES,Potency
1,Cc1ccc(NC(=O)C2CCN(S(=O)(=O)c3cccc(C(F)(F)F)c3)CC2)nc1,inactive
2,COc1ccc(N(CC2CO2)S(=O)(=O)c2ccc(C)cc2)cc1 (stereo unspecified),"inconclusive [inhibitor, single point]"
3,CC1CC(C)CN(C(=O)CN2CCN(Cc3ccc(Cl)cc3)C2=O)C1 (stereo unspecified),"inconclusive [inhibitor, single point]"
4,Cc1ccc(C)c(Cn2c(C(C)O)nc3ccccc32)c1 (stereo unspecified),"inconclusive [inhibitor, single point]"
5,O=C(CCNC(=O)c1ccco1)Nc1ccc(Cl)cc1F,inactive
6,CN(C)CCOC(=O)CC12CC3CC(C1)CC(CC(=O)OCCN(C)C)(C3)C2,"inconclusive [inhibitor, single point]"
7,Cc1cc(=O)oc2ccc(OCC(=O)N3CCC(C)CC3)cc12,active: 25.9 µM
8,O=C(O)C1(Cc2nc3ccccc3[nH]2)CCCC1,inactive
9,CC(CCc1ccccc1)NC(=O)COC(=O)C12CC3CC(CC(Br)(C3)C1)C2 (stereo unspecified),"inconclusive [inhibitor, partial curve]"
10,CCOC(=O)c1c(C)oc2cc(Br)c(OC)cc12,inactive
11,Cn1nnc2c[n+](CC(=O)c3ccc4ccccc4c3)cc(Br)c21,active: 14.6 µM
12,O=S(=O)(NCCc1csc(-c2cccnc2)n1)c1cccs1,"inconclusive [inhibitor, single point]"
13,O=C(Nc1ccc2c(c1)OCCO2)C(C1CC1)N1CCC(Cc2ccccc2)CC1 (stereo unspecified),"inconclusive [inhibitor, single point]"
14,CCOC(=O)C1CCCN(C(=O)c2ccc(-n3ccc4ccccc43)s2)C1 (stereo unspecified),"inconclusive [inhibitor, single point]"
15,COc1cc(Nc2nc3ccc(Cl)cc3n3cnnc23)cc(OC)c1OC,"inconclusive [inhibitor, partial curve, poor fit]"
16,COc1ccc(OC)c(-c2c3cc(O)c(=O)cc-3oc3cc(O)c(O)cc23)c1,"inconclusive [inhibitor, single point]"
17,CCc1nc2ccc(C(=O)NCCCn3ccnc3)cn2c1N(CC)Cc1cccc(Br)c1,"inconclusive [inhibitor, single point]"
18,O=C(NCCc1ccccn1)/C(=C/c1ccco1)NC(=O)c1ccccc1,inactive
19,Cc1ccc(-c2nc(CS(=O)(=O)CC(=O)NC3CCCCCC3)c(C)o2)cc1,"inconclusive [inhibitor, single point]"
20,CCOC(=O)c1sc2nc(C)n(CC(=O)NCC3CCCO3)c(=O)c2c1C (stereo unspecified),"inconclusive [inhibitor, single point]"
21,Cc1ccc(NC(=O)c2ccc(N3CCOCC3)c([N+](=O)[O-])c2)cc1S(=O)(=O)N1CCOCC1,active: 7.31 µM
22,CC(CCc1ccccc1)NC(=O)Cc1cccs1 (stereo unspecified),inactive
23,COCC1=C(C(=O)OC)C(c2cccs2)n2ncnc2N1 (stereo unspecified),inactive
24,O=S(=O)(c1ccccc1C(F)(F)F)N1CCOCC1,inactive

row,SMILES,Potency
1,COc1ccccc1OCc1ccc(C(=O)NCC2CCCO2)o1 (stereo unspecified),inactive
2,COc1ccc(Cc2nc3ccccc3n2CC(=O)N/N=C/c2ccccc2)cc1OC,"inconclusive [inhibitor, partial curve, poor fit]"
3,COC(=O)c1ccc(NC(=O)c2ccc[n+]([O-])c2)cc1,inactive
4,O=C(Oc1ccc(Br)cc1)c1cncc(Br)c1,inactive
5,O=C(NC(=O)N1CCN(C(c2ccccc2)c2ccccc2)CC1)c1ccccc1,"inconclusive [inhibitor, single point]"
6,Cc1cc(C)n(C(=O)CNc2ccc(C)c(C)c2)n1,"inconclusive [inhibitor, partial curve, poor fit]"
7,O=C(Cn1cc(/C=N/NC(=O)c2cccc3ccccc23)c2ccccc21)Nc1ccc(F)cc1,"inconclusive [inhibitor, partial curve]"
8,O=C(Nc1ncccn1)c1ccc(Cl)c([N+](=O)[O-])c1,inactive
9,COc1ccc2nc(N3CCC(C)CC3)c(C#N)cc2c1,"inconclusive [inhibitor, single point]"
10,C=C1C(=O)[C@@]23[C@H](O)C[C@@H]4C(C)(C)CC[C@H](O)[C@@]4(C)[C@@H]2CC[C@@H]1[C@H]3O,active: 0.82 µM
11,CCn1nc(C)c(NC(=O)/C=C/c2cnn(C)c2)c1C,"inconclusive [inhibitor, single point]"
12,COc1cccc(-c2ccc3c(N)c(C(=O)Nc4cc(F)ccc4F)sc3n2)c1,"inconclusive [inhibitor, single point]"
13,O=C(Nc1ccccc1Br)C1CCCN1S(=O)(=O)c1cccc2nsnc12 (stereo unspecified),"inconclusive [inhibitor, partial curve]"
14,COc1cc(O)c(C(=O)/C=C/c2ccc(O)c(OC)c2)c(OC)c1,"inconclusive [inhibitor, single point]"
15,O=S(=O)(c1ccc2ccccc2c1)N1CCN(C(=S)Nc2ccccc2F)CC1,inactive
16,CCN(C(=O)COC(=O)c1cccnc1)c1cccc2ccccc12,"inconclusive [inhibitor, single point]"
17,COC(=O)c1ccc2c(=O)n(Cc3ccc4c(c3)OCO4)c(=S)[nH]c2c1,"inconclusive [inhibitor, single point]"
18,CCOC(=O)c1c(S(=O)(=O)N2CCCC(C(=O)Nc3ccccn3)C2)c(C)n(C)c1C (stereo unspecified),inactive
19,CC(CCc1ccccc1)NC(=O)COc1cc(F)ccc1[N+](=O)[O-] (stereo unspecified),"inconclusive [inhibitor, single point]"
20,CCc1cccc(NC(=O)CN2Cc3ccccc3C2=O)c1,"inconclusive [inhibitor, single point]"
21,COc1cc(-c2c(-c3cc(OC)c(OC)c(OC)c3)noc2C)ccc1F,active: 89.1 nM and active: 7.3 nM
22,COc1ccc(C(=O)Nc2cccc(C(=O)Nc3cc(C)ccn3)c2)cc1,active: 20.6 µM
23,CC(=O)c1cc2c(cc1NC(=O)CN1CCC(Cc3ccccc3)CC1)OCO2,"inconclusive [inhibitor, single point]"
